Results: PubChem BioAssay (NCI)
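How tested: cells in 96-well plates exposed to compound for 48 hours at five concentrations. Abbreviation: GI50, concentration required for 50% inhibition of growth. TGI marks complete inhibition of growth.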 Peptide text beside a SMILES is read from it.

Test system: NCI-H322M lung
Experiment: DTP human tumour cell line panel, 48 h

For `Nc1nc2c3c(ncn3CC(O)CO2)n1` (stereo not drawn), the TGI was > 100 µM.
`CCC1c2[nH]c3ccccc3c2C[C@H]2C(=O)NC(Cc3c[nH]c4ccccc34)C(=O)N12` (stereo partly drawn) was tested, and the TGI was > 100 µM.
In the case of `CN(C)C(=S)/N=c1\ssc(=Nc2ccccc2)n1C`, the TGI is reported as > 100 µM.
With `O=C(O)C(CCc1ccccc1)N1C(=O)c2ccccc2C1=O` (stereo not drawn) the TGI was > 100 µM.
With `COc1cc2c(cc1OCCCC(=O)Nc1cc(C(=O)Nc3cc(C(=O)Nc4cc(C(=O)NCCCN(C)C)n(C)n4)n(C)c3)n(C)c1)N=CC1CCCN1C2=O` (stereo not drawn) the TGI was > 100 µM.
`CCCCCCCC/C=C/CCCCCCCC(=O)N(O)C1CC(n2cc(C)c(=O)[nH]c2=O)OC1CO` (stereo not drawn) showed a TGI of 30.5 µM.
For `CN1C(=O)N(C)C2(O)c3ccccc3C(=O)C12O` (stereo not drawn), the TGI was > 100 µM.
With `O=C1NC(=NCc2c(Cl)cccc2Cl)S/C1=C\c1ccc2ncccc2c1` the GI50 was 5290 nM and the TGI was > 25 µM.
`CC1=CC(C)C(C)N(CC2=NCCN2)c2ccccc21` (stereo not drawn) was tested, and the TGI was > 100 µM.
In the case of `COc1cc2nccc(Oc3ccc(NC(=O)C4(C(=O)Nc5ccc(F)cc5)CC4)cc3)c2cc1OC(=O)c1ccc(N)cc1`, the GI50 is reported as 4560 nM and the TGI is reported as > 100 µM.
With `O=C(Nc1ccccc1SC(/C=C/NNC1=NC(c2ccccc2)C(c2ccccc2)=NN1)c1ccccc1)c1ccc(Cl)cc1Cl` (stereo not drawn) the TGI was > 100 µM.
In the case of `N#CC(C(=O)C(N)=O)c1ccccc1Cl` (stereo not drawn), the TGI is reported as > 100 µM.
With `O=[N+]([O-])/C(C(Cl)=C(Cl)Cl)=C(\Nc1cccc2ccccc12)n1nnc2ccccc21` the TGI was > 100 µM.
`CCN(CC)c1c(C(=O)/C=C/c2ccc(F)cc2)c(-c2ccccc2)nn(C)c1=O` showed a TGI of 17.7 µM.
With `CCOC(=O)C(/C(=N/NC(=O)OC)C(=O)Nc1ccc(C(C)=O)cc1)c1cnc2ccccc2n1` (stereo not drawn) the TGI was > 100 µM.
With `CCN(CC)CCn1ncc2c(N)ncnc21` the TGI was > 100 µM.
`CCC(C)C1NC(=O)C(CCCCN)NC(=O)C(CCCCN)NC(=O)C(CC(C)C)NC(=O)C(CCCCN)NC(=O)C(C(C)CC)NC(=O)C(C(C)C)NC(=O)C(C(C)CC)NC(=O)C(CCCCN)NC(=O)C(CCCCN)NC(=O)C(C)NC(=O)C(CCCCN)NC(=O)C(CC(C)C)NC1=O` (stereo not drawn) (cyclo(AKKIVIKLKKILK); configuration not given here) was tested, and the GI50 was 2800 nM and the TGI was 11.1 µM.
`CCNCCNc1cc(-c2ccc(Cl)c(Cl)c2)c(C#N)c2nc3ccccc3n12` showed a GI50 of 1760 nM and a TGI of 3.3 µM.
`CCCCCCCCn1ccc2cc(NC(=O)Cn3cc(CN4CCN(CC)CC4)nn3)ccc21` showed a GI50 of 1830 nM and a TGI of 3.66 µM.
`COc1ccc(/C=C(/C(=O)N2CCCCC2)c2cc(OC)c(OC)c(OC)c2)cc1` was tested, and the GI50 was 2800 nM and the TGI was > 100 µM.
With `Cc1ccc(S(=O)(=O)NC2CCCCO2)cc1` (stereo not drawn) the TGI was > 100 µM.
`O=C1C2=C(C(c3ccccc3)=C1c1ccccc1)c1ccccc1C1(c3ccccc3)C2=C(O)C(c2ccccc2)=C1c1ccccc1` (stereo not drawn) was tested, and the TGI was > 100 µM.
`NC(N)=NCCN1CCCCCc2ccccc21` was tested, and the TGI was > 10 µM.
`N=C(N)c1ccc(-c2ccc(-c3ccccc3)s2)s1` gave a GI50 of 173 nM and a TGI of 1.97 µM.
Work on `COc1ccc(NC(=S)N/N=C(\c2ccccc2)c2ccccn2)cc1` yielded a TGI of 19.5 µM.
For `COC(=O)N[C@H]1C=C[C@@H]2/C=C(C)/C=C/[C@@H](C)[C@H]([C@H](C)[C@H](O)[C@@H](C)NC(C)=O)OC(=O)/C=C/C=C(C)\C=C\[C@]2(C)C1`, the TGI was > 45.3 µM.
`CC(C)NCCCNc1c2ccccc2nc2cccc([N+](=O)[O-])c12` showed a GI50 of 14.6 nM.
`N#CNC(=NCc1ccccc1)NCc1ccccc1` was tested, and the TGI was > 100 µM.
With `CCCCNC(=O)OCCN=C1c2ccccc2C(Br)C(Br)c2ccccc21` (stereo not drawn) the TGI was > 100 µM.
With `CCN(CC)c1ccc2cc(-c3nc4ccccc4n3C)c(=O)oc2c1` the TGI was > 100 µM.
With `N#CC(NCCc1ccccc1)c1ccc(C(C#N)NCCc2ccccc2)cc1` (stereo not drawn) the TGI was > 100 µM.
With `CCOC(=O)C1=C(C)N2CCOC2(C)C(C(=O)OC)C1c1cccc(Cl)c1` (stereo not drawn) the TGI was > 100 µM.
In the case of `CCCCC1(C2c3ccccc3Oc3ccccc32)C(=O)N(c2ccccc2)N(c2ccccc2)C1=O`, the TGI is reported as > 100 µM.
For `O=C(CCC1CCCCC1)NCc1ccc(C(=O)O)cc1`, the TGI was > 100 µM.
`CCCCCCCCCCCCCCCC(=O)Nc1ccn([C@@H]2O[C@H](CO)[C@@H](O)[C@@H]2C#N)c(=O)n1` showed a GI50 of 18100 nM and a TGI of 42.9 µM.
`CCNC(=O)N1CCc2c(Cl)c3c(c(OC)c2[C@@H]1[C@H]1OCc2c1ccc(OC)c2OC)OCCO3` was tested, and the GI50 was 4520 nM and the TGI was > 100 µM.
In the case of `CC(C)NC1(C(N)=O)CCN(Cc2ccccc2)CC1`, the TGI is reported as > 100 µM.
`O=c1cc(-c2ccccc2)[nH]c2ccc(N3CCCC3)cc12` was tested, and the TGI was > 71.3 µM.
`O=C(Nc1ccccc1C(=O)N/N=C(\c1ccccc1)c1ccccn1)c1ccccc1` was tested, and the GI50 was 469 nM and the TGI was > 100 µM.
In the case of `COC(=O)C(=O)C(CC(=O)Nc1c(C)cccc1C)C(=O)OC` (stereo not drawn), the TGI is reported as > 100 µM.
For `CC1C2CC(CC23OCC(CCl)O3)C1(C)C` (stereo not drawn), the TGI was > 100 µM.
With `[N-]=[N+]=Nc1cccc(-c2n[nH]c(Cl)cc2=O)c1` the TGI was > 100 µM.
In the case of `CC[C@@]1(C[C@H]2C[C@@]3(C(=O)OC)c4[nH]c5ccccc5c4CCN3C2=S)COC2(CCCCC2)O1`, the TGI is reported as > 100 µM.
In the case of `CCOC(=O)CC1C(O)C(=O)N(C)C1c1ccccc1` (stereo not drawn), the TGI is reported as > 100 µM.
`CC1(C)OCC[C@@H]1[Si](C)(C)C` was tested, and the TGI was > 100 µM.
For `N#Cc1c(=N)cc2c3ccccc3oc3c(C#N)c(N)[nH]c1c32`, the TGI was > 100 µM.
With `Cc1ncc([N+](=O)[O-])n1CCNC(=O)CCC(=O)NCCCn1ccnc1[N+](=O)[O-]` the TGI was > 100 µM.
With `COC(=O)Nc1nc2ccc(NS(=O)(=O)c3ccc(Cl)cc3)cc2[nH]1` the TGI was 37.9 µM.
With `NC(=O)/C(=N\NC(=O)c1cc2ccccc2cc1O)C1C(=O)N(c2ccccc2)N=C1N` (stereo not drawn) the TGI was > 100 µM.
With `O=C1c2ccccc2S(=O)(=O)N1CSC(=S)N1CCOCC1` the GI50 was > 100000 nM and the TGI was > 100 µM.
`Cc1cc(O)c(C=NC(=S)c2ccncc2)c(=O)o1` was tested, and the TGI was > 100 µM.
With `c1ccc(P2c3ccccc3Nc3ccccc32)cc1` the TGI was > 100 µM.
`S=C1Nc2cnc3ccccc3c2SC1c1ccccc1` (stereo not drawn) was tested, and the TGI was > 100 µM.
`COC(=O)C(/C(=N/NC(N)=O)C(=O)Nc1c(C)cccc1C(C)(C)C)c1nc2ccc(Cl)cc2[nH]c1=O` (stereo not drawn) was tested, and the TGI was > 100 µM.
With `COc1ccc(-c2onc(-c3ccc([N+](=O)[O-])cc3)c2C2=NCCCN2)cc1` the TGI was > 100 µM.
In the case of `Cn1cc(NC(=O)c2cc(NC(=O)CCCCCCCCCC(=O)Nc3cc(C(=O)Nc4cc(C(=O)NCCC(=N)N)n(C)c4)n(C)c3)cn2C)cc1C(=O)NCCC(=N)N`, the TGI is reported as 46.3 µM.
With `C=C1CC[C@]2(C)[C@H](CC[C@@]34C[C@@H](CC[C@H]32)[C@@H](C(=O)O)C4)C1(C)C` the TGI was > 12.5 µM.
For `CNC(=O)c1ccc(C(=O)NCCCCCN(O)C(=O)CCC(=O)NCCCCCN(O)C(=O)CCC(=O)NCCCCCN(O)C(C)=O)c(O)c1O`, the TGI was > 100 µM.
In the case of `CCSC1=CC(Cc2ccc(OC)cc2)N(C(=O)OC)C1` (stereo not drawn), the TGI is reported as > 100 µM.
With `O=C(O)CCC1(C(=O)O)CCC(=O)c2ccccc21` (stereo not drawn) the TGI was > 100 µM.
For `CCOC(=O)c1cc(C(=O)c2cc(OC)c(OC)c(OC)c2)n2nc(C)ccc12`, the GI50 was 648 nM and the TGI was > 100 µM.
In the case of `COC(=O)C(C)NP(=O)(OCc1ccc(Cn2cnc3c(N)ncnc32)cc1)Oc1ccccc1` (stereo not drawn), the GI50 is reported as 70000 nM and the TGI is reported as > 100 µM.
`COc1ccc(CCc2nc3cc(-c4c(C)noc4C)ccc3n2CCN2CCOCC2)cc1` was tested, and the GI50 was 27000 nM and the TGI was > 100 µM.
Work on `Cn1cc(-c2csc(-c3c[nH]c4ccccc34)n2)c2cccnc21` yielded a GI50 of 794 nM and a TGI of 48.5 µM.
`COC(=O)[C@@H]1c2[nH]c3ccccc3c2C[C@@H]2c3ccccc3NC(=O)[C@@H]21` was tested, and the TGI was > 100 µM.
With `O=C(Nc1cccc([N+](=O)[O-])c1)/C(=N\NC(=O)c1ccncc1)c1nc2ccc([N+](=O)[O-])cc2[nH]c1=O` the TGI was > 100 µM.
For `CC(C)C(=O)NCC[C@@H](CNC(=O)OC(C)(C)C)NC(=O)OC(C)(C)C`, the TGI was > 100 µM.
Work on `COc1ccc(C(O)c2cc3c(N)c(C(=O)Nc4ccccc4)sc3nc2C)cc1` (stereo not drawn) yielded a GI50 of 55.5 nM and a TGI of 47.4 µM.
For `O=c1oc2c([N+](=O)[O-])cc([N+](=O)[O-])cc2c2ccccc12`, the TGI was > 100 µM.
Compound `CCOC(=O)/C=C/C1OC(C)(C)OC1/C=C/C(=O)OCC` (stereo not drawn) has a TGI of 86 µM.
In the case of `CCCCS/C(=C(/C#N)C(N)=O)c1cc2c([nH]1)CCCC2`, the TGI is reported as 27.7 µM.
In the case of `CCOC(=O)c1cc2c([nH]1)c(OC(C)=O)cc1c2ccn1Cc1ccccc1`, the TGI is reported as > 100 µM.
With `CCOC(=O)C(C(=O)OCC)C1C=CCC2c3ccccc3COCC21` (stereo not drawn) the TGI was > 100 µM.
With `Cc1oc2c(cc(O)c3ccccc32)c2cccc1-2` the TGI was > 100 µM.
`CC(=O)Nc1ccc(C(=O)NN2C(=O)C(Cl)C2c2cc(Br)cc(Br)c2O)cc1` (stereo not drawn) was tested, and the TGI was > 100 µM.
`C=C1C(=O)C23CC1CCC2C12CO[C@H](O)[C@H]1C(C)(C)[C@H](OC(C)=O)C[C@H]2OC3=O` (stereo partly drawn) was tested, and the TGI was > 100 µM.
For `COc1cc(-c2cc(-c3nc4ccc(F)cc4[nH]3)[nH]n2)cc(OC)c1OC`, the GI50 was 2580 nM and the TGI was 11.3 µM.
In the case of `CC1CC(c2ccccc2)Nc2nc3ccccc3n21` (stereo not drawn), the TGI is reported as > 100 µM.
`O=C1OC(Cl)C(N=P(c2ccccc2)(c2ccccc2)c2ccccc2)=C1Cl` (stereo not drawn) was tested, and the TGI was > 100 µM.
With `O=C(Nc1cc(Cl)c(Cl)cc1Cl)C(=O)C(C(=O)c1ccccc1)C1OC(=O)c2ccccc21` (stereo not drawn) the TGI was > 100 µM.
With `COc1ccc(/C=C2\C(=O)NC(=O)c3ccccc32)cc1OC` the TGI was > 100 µM.
With `CC(=O)/C(=C\c1ccccc1)C(=O)Nc1ccccc1` the TGI was > 100 µM.
Compound `O=C(Cc1cc(=O)oc2cc(O)ccc12)N/N=C/c1ccc(N(CCCl)CCCl)cc1` has a TGI of 36.1 µM.
Compound `C#CCNCCCN1C(=O)c2ccc3c4c(ccc(c24)C1=O)C(=O)N(CCCNCC#C)C3=O` has a GI50 of 201 nM and a TGI of 0.64 µM.
`O=c1[nH]c(=O)n(C2CC(O)C(CO)O2)cc1/C=C/Br` (stereo not drawn) was tested, and the TGI was > 100 µM.
For `Cc1cc(S(=O)(=O)N/C(=C(\C#N)C(=O)c2ccccc2)[n+]2ccc(N(C)C)cc2)c([S-])cc1Cl`, the TGI was > 100 µM.
In the case of `CN(C)[C@@H]1C(=O)C(C(=O)NCN2CCN(C(=N)N=C(N)N)CC2)=C(O)[C@@]2(O)C(=O)C3=C(O)c4c(O)cccc4[C@@](C)(O)[C@H]3C[C@@H]12`, the TGI is reported as 11.9 µM.
In the case of `COc1ccc(CNc2cnc3ccc(N)cc3n2)cc1OC`, the TGI is reported as > 100 µM.
With `CC(C)OP(=O)(OC(C)C)/C(F)=N/Nc1ccc([N+](=O)[O-])cc1` the TGI was > 100 µM.
In the case of `CCOC(=O)C1C(c2ccc3c(c2)OCO3)c2c([nH][nH]c2=O)CC1(O)OCC` (stereo not drawn), the TGI is reported as > 100 µM.
